Data taken from the supplement of paper PMC3724861.
Some of the results follow.

Each sequence was assayed on T1, Caupolican (Caup) homeodomain DNA-binding domain (assay: PBM E-score (8-mer, recovered from the published 9-mer minima) (E-score (dimensionless, -0.5 to 0.5)); Drosophila protein; higher = stronger relative binding preference, active = 0.31 or more).
T1 sequence: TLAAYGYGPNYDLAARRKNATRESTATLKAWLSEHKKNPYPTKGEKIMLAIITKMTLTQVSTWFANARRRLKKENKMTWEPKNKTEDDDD
Method in brief: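 An enrichment score, with higher meaning stronger, expresses relative binding preference for each short DNA word. The protein used was Caup's homeodomain DNA-binding domain (residues 214-303), produced by in vitro transcription and translation and tested at 100 nM on custom-designed protein binding microarrays. The 8-mer values were recovered from published 9-mer scores, each equal to the lower of its two constituent 8-mer scores.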

Row | Sequence | PBM E-score
1 | ACGCTTTA | inactive: 0.00556
2 | GCCGTCGC | inactive: -0.192
3 | CTATCTGA | inactive: 0.0431
4 | CCCACCGA | inactive: -0.172
5 | GGCAGATA | inactive: -0.016
6 | GTGTGAAA | inactive: 0.0816
7 | ATCGAAGG | inactive: -0.0662
8 | ACGCTAAG | inactive: -0.0391
9 | GGACAGGA | inactive: 0.0585
10 | ATCACGAT | ≥ 0.113
11 | GTAGTACA | active: 0.346
12 | CGACCATC | inactive: -0.0645
13 | CATCCACA | inactive: 0.125
14 | GTCCCACA | inactive: -0.0729
15 | AGTAACTC | inactive: 0.0562
16 | AACTTGAG | inactive: -0.0948
17 | ATGTGCTA | inactive: 0.0682
18 | ATAGGGGG | inactive: -0.221
19 | ATAGTGGC | inactive: -0.0179
20 | CTCACGAC | inactive: -0.0934
21 | CCCAAAAG | inactive: -0.172
22 | AAGGCTGG | inactive: -0.19
23 | AGTGGAGA | inactive: -0.0688
24 | GTCCCAGA | inactive: -0.152
25 | CGAACATC | inactive: 0.279

Row | Sequence | PBM E-score
26 | AGTCTGGC | inactive: -0.101
27 | TACGCGCA | inactive: -0.0283
28 | AATACTCA | inactive: 0.143
29 | ACGACAGT | inactive: 0.094
30 | CCTCAGAG | inactive: -0.189
31 | CCCGTGCA | inactive: -0.0955
32 | GATTGAAA | inactive: 0.0895
33 | ACATTATG | inactive: 0.222
34 | AGGTGTGC | inactive: -0.00906
35 | AGCCTTAG | inactive: -0.0876
36 | AACATACT | active: 0.31
37 | CATAAGCA | inactive: -0.039
38 | TAACACCA | inactive: 0.247
39 | CTAGTATC | inactive: 0.0918
40 | ACATGTTA | active: 0.452
41 | CCGATAAG | inactive: 0.00966
42 | GATCTAGC | inactive: -0.0556
43 | AATTTGAA | inactive: 0.0337
44 | AGCCGAGG | inactive: -0.125
45 | CGACGCTA | inactive: -0.0133
46 | CTATATGC | ≥ 0.159
47 | AGATCAAT | inactive: 0.0507
48 | AGGTCTAT | inactive: 0.049
49 | TCTCGAGA | inactive: 0.0237
50 | ACCGCAGA | inactive: -0.078

Row | Sequence | PBM E-score
51 | GCTTATAA | inactive: -0.0136
52 | CAGCTGGC | inactive: -0.219
53 | CCAATGGA | inactive: -0.156
54 | GAAGCATC | inactive: -0.0727
55 | CGTTGACC | inactive: 0.023
56 | CTGGAACC | inactive: -0.156
57 | AGTCAGAT | inactive: 0.114
58 | AACCAGCT | ≥ 0.1
59 | CTTAACGC | inactive: -0.112
60 | ACCCCAGG | inactive: -0.228
61 | GAGTTAAC | inactive: 0.12
62 | CCAGGCGC | inactive: -0.315
63 | CGTGATTA | inactive: 0.173
64 | AGGCTATG | inactive: 0.029
65 | CAGTGCGC | inactive: -0.161
66 | ATGTGTAA | active: 0.332
67 | GCTCGTCC | inactive: -0.0479
68 | GAACATCA | inactive: 0.259
69 | ACGACGAC | inactive: -0.0582
70 | ACGTGCGC | inactive: -0.0723
71 | TAAAAAGA | inactive: 0.0988
72 | GCCCTATA | inactive: -0.047
73 | ATCCGGCC | inactive: -0.201
74 | CTTGACAC | inactive: 0.141
75 | CATGCTGA | inactive: 0.146

Row | Sequence | PBM E-score
76 | TTCCCAAA | inactive: 0.0457
77 | CAACGCCA | inactive: 0.0121
78 | AGAACATA | active: 0.318
79 | ACTTCAGG | inactive: -0.0156
80 | CATACTGG | inactive: 0.042
81 | GTTCTGTA | inactive: 0.197
82 | ATACGAGC | inactive: 0.136
83 | AGCCGCCG | inactive: -0.232
84 | AACACCTG | ≥ 0.237
85 | ATACTGAA | inactive: 0.0974
86 | AAGGAACG | inactive: -0.0568
87 | ATCATACG | inactive: 0.136
88 | GGAACAAA | inactive: 0.194
89 | GAAAATTA | ≥ 0.163
90 | GCGACTCA | inactive: -0.0964
91 | TCACGTGA | inactive: 0.0495
92 | CTAACTAC | inactive: 0.102
93 | GTCCCAAA | inactive: -0.0338
94 | CAGGCTCG | inactive: -0.119
95 | ACGGCAAT | inactive: 0.0308
96 | CTTGAGCA | inactive: -0.0687
97 | CATTTGAC | inactive: 0.0733
98 | GTAGGACA | inactive: 0.114
99 | CCGACGGA | inactive: -0.0881
100 | CCAGGCTA | inactive: -0.137

Row | Sequence | PBM E-score
101 | CGACTAGA | inactive: 0.0851
102 | ACTCACCG | inactive: -0.0975
103 | GCTTACTA | inactive: 0.0912
104 | ACAACGGG | inactive: 0.137
105 | AGAATCAC | inactive: 0.0452
106 | CCACGTCG | inactive: -0.0926
107 | AATCCATA | inactive: 0.133
108 | CGCGATAC | inactive: -0.0891
109 | CTCGTGCA | inactive: -0.0522
110 | CGGAATCC | inactive: -0.104
111 | CCTTTCTA | inactive: -0.0969
112 | GACACAAA | inactive: 0.203
113 | CGTAGGAC | inactive: -0.126
114 | AGAATGAG | ≥ 0.103
115 | AGGCGAGA | inactive: -0.216
116 | ACCAGGAC | inactive: 0.14
117 | ACAAGAAA | inactive: 0.252
118 | CTGCACGC | inactive: -0.145
119 | AAGCCTAG | inactive: -0.0444
120 | ACAGATCG | inactive: 0.0279
121 | CACGTTAA | inactive: 0.117
122 | AGCTGCGG | inactive: -0.234
123 | GCGCTATA | inactive: 0.0266
124 | ATCTGTTG | inactive: 0.128
125 | TGAGACCA | inactive: -0.0323

Row | Sequence | PBM E-score
126 | CTTAACAA | inactive: 0.228
127 | GAAACCCA | inactive: 0.0044
128 | AGTCCCGG | inactive: -0.223
129 | AGACAATC | inactive: 0.0846
130 | AAAGCTCA | inactive: -0.094
131 | AGGATGAA | inactive: -0.102
132 | ATGGGCAC | inactive: -0.0483
133 | GAGCGGGC | inactive: -0.293
134 | CGTCTGTA | inactive: 0.156
135 | AGTATAAA | inactive: 0.113
136 | ACAATGGG | inactive: 0.0911
137 | GCGCTCAC | inactive: -0.0718
138 | CCCGACAA | inactive: 0.142
139 | TACCGGAA | inactive: 0.0524
140 | CTCGGTAC | inactive: -0.0165
141 | CCCGCGTA | inactive: -0.121
142 | AGTAGAGA | inactive: -0.0115
143 | CTAGGACC | inactive: -0.127
144 | CCAGCGTA | inactive: -0.134
145 | CCCTTGGA | inactive: -0.116
146 | ACTGAAAG | inactive: 0.023
147 | GGTGTCCA | inactive: 0.152
148 | GCGTTTCA | inactive: -0.0787
149 | CGTTACAC | inactive: 0.183
150 | CTACGCAC | inactive: -0.0287

Row | Sequence | PBM E-score
151 | ATTACACC | inactive: 0.259
152 | AACTATCC | inactive: -0.0674
153 | AATTCTGT | inactive: 0.0957
154 | GGTGGGAC | inactive: -0.0958
155 | AACAATTA | ≥ 0.265
156 | GCCGAACC | inactive: -0.2
157 | CTACTTAC | inactive: 0.0818
158 | CATCTGAC | inactive: 0.0423
159 | CAATGGCA | inactive: -0.0588
160 | AGCTATGC | inactive: -0.0644
161 | AGCCGGGG | inactive: -0.281
162 | CACATAGC | inactive: -0.00094
163 | CCTACCCG | inactive: -0.0868
164 | CCAGTACC | inactive: -0.0496
165 | GAGTAGTA | inactive: 0.0893
166 | ACTATTTA | inactive: 0.187
167 | AATCCGCG | inactive: -0.0297
168 | CGATCGAA | inactive: -0.0833
169 | ATGGCGCA | inactive: -0.0991
170 | ACACTGAT | inactive: 0.172
171 | GTGTTTGA | inactive: 0.299
172 | CCCAGTTC | ≥ -0.0436
173 | GGAGCCGA | inactive: -0.213
174 | AAGTATTG | inactive: 0.145
175 | TGTCCACA | ≥ 0.222

Row | Sequence | PBM E-score
176 | TATTTGCA | inactive: 0.087
177 | CAGCACTA | inactive: -0.0158
178 | AGTATTCC | inactive: 0.0265
179 | GCTCCGAA | inactive: -0.0208
180 | AGGAAGCC | inactive: -0.173
181 | CGACCCAC | inactive: -0.123
182 | AATCTTCA | ≥ 0.0619
183 | GTGGAGCA | inactive: -0.109
184 | AACAAGTG | active: 0.334
185 | AAGGGTAC | inactive: 0.109
186 | AGCCTTAA | inactive: -0.125
187 | AGGAGATC | inactive: -0.0431
188 | GAACGGAC | inactive: -0.0243
189 | AAGCATTG | inactive: 0.102
190 | AAAAATGC | inactive: 0.0185
191 | GGTTAGCA | inactive: 0.00269
192 | GGCATCCA | inactive: -0.0286
193 | CCGAGGTA | inactive: -0.0104
194 | GAATTCAA | inactive: 0.0935
195 | GAAGCTTC | inactive: -0.218
196 | CTATTCGA | inactive: 0.0836
197 | CTTGCCGC | inactive: -0.156
198 | CAAAGTCA | inactive: -0.0139
199 | AGATGCAC | inactive: -0.00186
200 | GCTAGGGA | inactive: -0.161

Row | Sequence | PBM E-score
201 | CAACTGCC | inactive: -0.0471
202 | GGCCTAAC | inactive: -0.0106
203 | CCATGATC | inactive: 0.0355
204 | ACCTGGCG | inactive: -0.147
205 | TCAGTGAA | inactive: -0.0554
206 | ATCCACCC | inactive: -0.143
207 | CCCTAAGA | inactive: -0.161
208 | ACTGATTG | inactive: 0.109
209 | AGGGAACG | inactive: -0.117
210 | AACCTATT | inactive: 0.0185
211 | CTAAAGAC | inactive: 0.0413
212 | AGATATAA | inactive: 0.072
213 | ATCGTTCA | inactive: 0.115
214 | CTTTTTCA | inactive: -0.0193
215 | CCAAGACC | inactive: -0.065
216 | CGGGGAAG | inactive: -0.18
217 | AGCTATAA | inactive: 0.0708
218 | CAGCGAGA | inactive: -0.0994
219 | CCACGTAC | inactive: 0.0892
220 | ATGAGCAC | inactive: 0.0154
221 | ACGTGAAG | inactive: -0.0437
222 | AAAAATCC | inactive: -0.00815
223 | ATTCTGGC | inactive: -0.119
224 | AAAGAAAC | inactive: 0.0567
